Source: ChEMBL document CHEMBL3259627, “Allosteric inhibition of human factor XIa: discovery of monosulfated benzofurans as a class of promising inhibitors” (J Med Chem, 2014)

What was measured:
[1] = system: CCOC(=O)c1c(C)oc2cc(OC)c(OCc3oc4cc(OCC)c(OS(=O)(=O)O)cc4c3C(=O)OCC)cc12; settings: Homo sapiens; 7.25 uM
[2] = system: CCOC(=O)c1c(C)oc2cc(OC)c(OCc3oc4cc(OC)c(OCc5oc6cc(OCC)c(OS(=O)(=O)O)cc6c5C(=O)OCC)cc4c3C(=O)OCC)cc12; settings: Homo sapiens; 900 nM
[3] = system: CCOC(=O)c1c(C)oc2cc(OC)c(OCc3oc4cc(OC)c(OCc5oc6cc(OCC)c(OS(=O)(=O)O)cc6c5C(=O)OCC)cc4c3C(=O)OCC)cc12; settings: Homo sapiens; 550 nM
[4] = system: CCOC(=O)c1c(C)oc2cc(OC)c(OCc3oc4cc(OCC)c(OS(=O)(=O)O)cc4c3C(=O)OCC)cc12; settings: Homo sapiens; 5 uM
[5] = system: CCOC(=O)c1c(C)oc2cc(OC)c(OCc3oc4cc(OCC)c(OS(=O)(=O)O)cc4c3C(=O)OCC)cc12; settings: Homo sapiens; 10 uM
[6] = system: CCOC(=O)c1c(C)oc2cc(OC)c(OCc3oc4cc(OC)c(OCc5oc6cc(OCC)c(OS(=O)(=O)O)cc6c5C(=O)OCC)cc4c3C(=O)OCC)cc12; settings: Homo sapiens; 150 nM
[7] = system: CCOC(=O)c1c(C)oc2cc(OC)c(OCc3oc4cc(OC)c(OCc5oc6cc(OCC)c(OS(=O)(=O)O)cc6c5C(=O)OCC)cc4c3C(=O)OCC)cc12; settings: Homo sapiens; 300 nM

Question: Which Km [1] does the source give for “Coagulation factor XI (Homo sapiens) (sequence not shown)” here?
Answer: The Km was 250 µM.

Question: And the Vmax [1]?
Answer: Its Vmax is 30.7 mAU/min.

Question: What about the Km [2] of the same substance?
Answer: The Km was 280 µM.

Question: What about the Vmax [2] of the same substance?
Answer: Its Vmax is 9.8 mAU/min.

Question: What about the Km [3] of the same substance?
Answer: The Km was 290 µM.

Question: And the Vmax [3]?
Answer: The Vmax was 34.9 mAU/min.

Question: What about the Km [4] of the same substance?
Answer: Its Km is 230 µM.

Question: What about the Vmax [4] of the same substance?
Answer: The Vmax was 37.4 mAU/min.

Question: And the Km [5]?
Answer: The Km was 310 µM.

Question: What about the Vmax [5] of the same substance?
Answer: The Vmax was 20.3 mAU/min.

Question: And the Km [6]?
Answer: The Km was 380 µM.

Question: What about the Vmax [6] of the same substance?
Answer: The Vmax was 57.1 mAU/min.

Question: And the Km [7]?
Answer: Its Km is 350 µM.

Question: What about the Vmax [7] of the same substance?
Answer: The Vmax was 48.7 mAU/min.
